Experimental data reported in the supplement of paper PMC8748497.
This is one part of the list.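 The calls were made as follows: active = GRHL reporter fold change of at least 2 over DMSO at 10 µM; inactive = below 2-fold.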 Most values come without repeats; read them as rough.

Each compound was assayed on HEK293 GRHL-luciferase reporter (assay: GRHL luciferase reporter activity, fold change over DMSO control; higher = stronger GRHL reporter activation). Details: 10 µM; 24 h.
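Also: stable HEK293 line carrying repeated GRHL consensus sites upstream of a minimal promoter driving luciferase, luminescence read 24 h post-treatment, normalized to 0.5% DMSO vehicle wells.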

Structure (SMILES) | GRHL luciferase reporter activity
c1ccc(CC2=NCCN2)cc1 | inactive: 1
NCCCC(N)(C(=O)O)C(F)F (stereo not given) | inactive: 0.892
CN(C)CCc1c[nH]c2ccc(Cn3cncn3)cc12 | inactive: 1.15
O=C(O)c1cc(=O)c2c(OCC(O)COc3cccc4oc(C(=O)O)cc(=O)c34)cccc2o1 | inactive: 1
Cc1nnc(NS(=O)(=O)c2ccc(N)cc2)s1 | inactive: 0.848
CC(C(=O)O)c1ccc(N2Cc3ccccc3C2=O)cc1 (stereo not given) | inactive: 0.905
O=c1cccc2ccc(O)c(O)c2c1O | inactive: 1.23
CCNC(=O)CC[C@H](N)C(=O)O | inactive: 0.906
CC=CC(=O)N(CC)c1ccccc1C | inactive: 1.18
CCCC(=O)O[C@]1(C(=O)CO)CC[C@H]2[C@@H]3CCC4=CC(=O)CC[C@]4(C)[C@H]3[C@@H](O)C[C@@]21C | inactive: 0.824
CCOC(=O)C1=C(C)NC(C)=C(C(=O)OC)C1c1cccc(Cl)c1Cl (stereo not given) | inactive: 1.07
CC(=O)OC1CCC2(C)C(=CCC3C2CCC2(C)C(C(C)CCCC(C)C)CCC32)C1 (stereo not given) | inactive: 1.14
COC(=O)[C@H](c1ccccc1Cl)N1CCc2sccc2C1 | inactive: 0.808
C=C1[C@H]2CC[C@@]3(C)[C@H](c4ccoc4)OC(=O)C[C@]13O[C@H]1C[C@H](O)C(C)(C)[C@H](CC(=O)OC)[C@]12C [3-DEOXY-3beta-HYDROXYANGOLENSIC ACID METHYL ESTER] | inactive: 0.791
CNCCCN1c2ccccc2CCc2ccccc21 | inactive: 0.545
NC[C@H]1O[C@H](O[C@H]2[C@H](O[C@@H]3O[C@H](CO)[C@@H](O)[C@H]3O)[C@@H](O)[C@H](N)C[C@@H]2N)[C@H](N)[C@@H](O)[C@@H]1O | inactive: 0.908
CN(C)CCOC(c1ccccc1)c1ccccc1 | inactive: 0.984
NC(=O)c1cc[n+](CC2=C(C(=O)O)N3C(=O)[C@@H](NC(=O)[C@@H](c4ccccc4)S(=O)(=O)[O-])[C@H]3SC2)cc1 | inactive: 0.876
C[C@]12CCC(=O)C=C1CC[C@@H]1[C@@H]2C(=O)C[C@@]2(C)[C@H]1CC[C@]2(O)C(=O)CO | inactive: 1.01
CC(=O)O[C@H]1CC[C@]2(C)[C@H]3CC=C4[C@@H]5CC(C)(C)CC[C@]5(C(=O)O)CC[C@@]4(C)[C@]3(C)CC[C@H]2C1(C)C | inactive: 1.15

Structure (SMILES) | GRHL luciferase reporter activity
Cc1cc(C(C)(C)C)cc(C)c1CC1=NCCN1 | inactive: 0.723
CCN(CC)CCNC(=O)c1ccc(N)cc1 | inactive: 0.812
CCCCCC1C(=O)CCC1CC(=O)OC (stereo not given) | inactive: 0.975
C[C@@H]1CC[C@@]2(OC1)O[C@H]1C[C@H]3[C@@H]4CC[C@H]5C[C@@H](O)CC[C@]5(C)[C@H]4CC[C@]3(C)[C@H]1[C@@H]2C | inactive: 1.01
COCCCC/C(=N\OCCN)c1ccc(C(F)(F)F)cc1 | inactive: 1.03
CCOc1cc(CC(=O)N[C@@H](CC(C)C)c2ccccc2N2CCCCC2)ccc1C(=O)O | inactive: 1.02
Cc1ccc2c(Br)cc(Br)c(OC(=O)c3ccccc3)c2n1 | active: 3.74
O=C(Nc1ccccc1)c1ccccc1O | active: 2.51
CC(=O)Nc1ccccc1 | inactive: 1.03
Cc1[nH]c(=O)c(C#N)cc1-c1ccncc1 | inactive: 1.09
Cn1c(=O)c2c(ncn2CC(=O)O)n(C)c1=O | inactive: 0.905
COCCCOc1ccnc(C[S+]([O-])c2nc3ccccc3[nH]2)c1C (stereo not given) | active: 3.37
Cc1cc(C(C)(C)C)c(O)c(C)c1CC1=NCCN1 | inactive: 1.02
COc1c(O)cc(O)cc1O | inactive: 0.754
COc1c(O)cc2oc3cc(O)c(CC=C(C)C)c(O)c3c(=O)c2c1CC=C(C)C [alpha-MANGOSTIN] | inactive: -0.0081
COc1ccc(C(=O)O)c(O)c1OC | inactive: 1.01
CC1=C(/C=C/C(C)=C/C=C/C(C)=C/C=C/C=C(C)/C=C/C=C(C)/C=C/C2=C(C)C(=O)CCC2(C)C)C(C)(C)CCC1=O [CANTHAXANTHIN (euglenanone)] | inactive: 1.06
CC(=O)O[C@@H]1C[C@H]2C(C)(C)C(=O)C=C[C@]2(C)[C@H]2CC[C@@]3(C)[C@H](c4ccoc4)OC(=O)[C@H]4O[C@]43[C@@]21C | inactive: 0.517
O=c1c(O)c(-c2ccc(O)c(O)c2)oc2cc(O)cc(O)c12 | inactive: 1.11
NCCCC[C@H](N[C@@H](CCc1ccccc1)C(=O)O)C(=O)N1CCC[C@H]1C(=O)O | inactive: 1.1
